Results on 22 molecules are retold here after article PMC12136788.

Some of the results follow.

Sequences and labels used below:
T1: UNK ZnF1-3 (human, UniProt Q9C0B0 31-174)
T1 sequence: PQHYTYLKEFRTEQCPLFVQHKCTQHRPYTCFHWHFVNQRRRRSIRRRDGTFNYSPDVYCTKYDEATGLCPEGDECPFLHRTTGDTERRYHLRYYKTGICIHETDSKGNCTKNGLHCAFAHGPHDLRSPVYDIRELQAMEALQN

B1: chr16:94690093:94690094:+_ENSMUSG00000040785_ENSMUST00000117648|mus_hu|mus_mus_mus_hu_True|1_88 (ssRNA)
RNA: GGGAGUUCUACAGUCCGACGAUCGGGCUGGGAUGACGGACACACAGAUCUUCCCAGAGGGGGAAAAAGUCUUAGUCGAUACUAAUUAAAAAGUGUUAAUGAUUUUUGAAAAUCAGAUUACAUCUAUAAAAGAUGAAAGCACUUCAACAGAGGAUUGAGCAUCA
B2: 61441815_61442215_1866_3pUTR_ENSG00000126814_ENST00000261249|human|control|control (ssRNA)
RNA: GGGAGUUCUACAGUCCGACGAUCAACAUUUCCAAUUAAGUGUUUGAAACAAUUUGUGUUUUUUCGUCUGAAAAGGCUUCAGCCGUCCUCUGCCUUUUAAGAGGUGGAUCUUCAUGAUUCUCUGGAUUUCUGGUCUGGUUCUUGCAACAGAGGAUUGAGCAUCA
B3: 145239554_145239674_443_3pUTR_ENSMUSG00000074182_ENSMUST00000098534|mouse|control|control (ssRNA)
RNA: GGGAGUUCUACAGUCCGACGAUCUAUCCGCCUCCUGCUUCACUUCCAACACGCCUUUCUCAUCCUUCACCUCGGGCCCGCCCUCCACCUCCUGCUUCACCCACUGGCUGUCCGCAACACCACUGUCUAAAUCCGACCAGUCUACAACAGAGGAUUGAGCAUCA
B4: chr2:62099399:62099400:-_ENSG00000115484_ENST00000544079|hu_mus|motif|central (ssRNA)
RNA: GGGAGUUCUACAGUCCGACGAUCGUAGGACUCCAUACCACUCAGUGUUCGGGAGUACUCUGUCAGUCUGAGGGCCAGCUCGGUUUCUGGAGCACCACCUCCUGCAAUAAGAGCUCUUUUCUUUACUAAGCAUCGGAUGACACACAACAGAGGAUUGAGCAUCA
B5: 143837486_143841914_1812_CDS_ENSMUSG00000045078_ENSMUST00000053498|mouse|control|control (ssRNA)
RNA: GGGAGUUCUACAGUCCGACGAUCCAGCUCCUCAAAUGGAAACUCCCCAUAGCAACAGCGGCAUUCAAUCAGCUGGCCAUCCUUUUGAUACUGUUCUUCAUUCAUCUGCAGGGCGAGCAAGAAGUCUUCAUGCUCUGCCAUCUCCAACAGAGGAUUGAGCAUCA
B6: chr1:89688648:89688649:+_ENSMUSG00000026289_ENSMUST00000027512|mus_mus|FALSE|FALSE (ssRNA)
RNA: GGGAGUUCUACAGUCCGACGAUCGAGCAGGACAGAGAAUGCUUUCCCAGCCCAGCCUUCAUCAUCACCAGCUCCUAGGUAGGCUUCUCUUACCAACACUGCACUGCACGCACAGGCAGUGGCUGGCCUCACCACUCUCUGCUCCAACAGAGGAUUGAGCAUCA
B7: chr14:76904430:76904431:+_ENSMUSG00000022010_ENSMUST00000022587|mus_hu|motif|central (ssRNA)
RNA: GGGAGUUCUACAGUCCGACGAUCUGCAGCCAAAAACACCCUCGUGGAAAAAAAGAGGGAACACCAGCAGCCUUGUAUAAGCGGGAUAAAAUCUUCUGGCUUUCCGCAGCCCAGGGAGAAACAGAAAACGGCAGCCCUAAUUUACAACAGAGGAUUGAGCAUCA
B8: chrX:76855959:76855960:-_ENSG00000085224_ENST00000373344|hu_hu|FALSE|FALSE (ssRNA)
RNA: GGGAGUUCUACAGUCCGACGAUCUGAGGCUAUAAAUUCAUCCAUACUGUCUUCAUCAAAAUAACCCUUAUUUUCUUUGCUAAUGUAGUCUAGCUGCAAACACCAAGGAUGAGUCCAUAUUCUACUUAACAUCUGAAAAUCUUGCAACAGAGGAUUGAGCAUCA
B9: chr8:108054885:108054886:-_ENSMUSG00000013160_ENSMUST00000013304|mus_hu|FALSE|FALSE (ssRNA)
RNA: GGGAGUUCUACAGUCCGACGAUCGGAGCGCUGGUGCAGCGUGCCUGUGAUGAGCAGGAUCACGUUGUCGAUCAUGUAACUGUAAGUAAUGAAGUCUAGGAAGCUGGCGAGUGGCUCAUAGGCAUGGUUCCUCAUGUGGCGGAACAACAGAGGAUUGAGCAUCA
B10: chr6:108204272:108204273:-_ENSG00000025796_ENST00000369002|hu_hu|motif|central (ssRNA)
RNA: GGGAGUUCUACAGUCCGACGAUCUUGCUCUCUAUCAGAGUCUCUGUCACUACCAUCAUCUUUCUCACUUUGGGAAUCUCGGUUGGUUUCUUCUUCUUCAGAAUCACUGCCCUUAUCUGAAACUUCUUCUUCAUCUUCCUUUACCAACAGAGGAUUGAGCAUCA
B11: chr7:135850644:135850645:-_ENSMUSG00000048170_ENSMUST00000057557|mus_hu|FALSE|FALSE (ssRNA)
RNA: GGGAGUUCUACAGUCCGACGAUCAUACAAGUGUUCUGUGAAGGUACUAUUCCGUGGGCAACCACUCAAGUUAACUGUAAAUUUUCCUAGUGGAAGGACAUCUCUUCUUGUAUAUACUGUGGAGAUGAGAUGUAAUAUAAGGUACAACAGAGGAUUGAGCAUCA
B12: chr4:144460044:144460045:+_ENSG00000153147_ENST00000283131|hu_mus|hu_hu_hu_mus_False|8_48 (ssRNA)
RNA: GGGAGUUCUACAGUCCGACGAUCACGGUCCAUAGCCUGAAGAUCAACUUGCGGAUUCCAAUCUGAGUCAUAUAAAAUGACUACAUCAGCAGUCGCAAGAUUGAUGCCCAGACCACCAGCACGUGUGCUUAACAUGAAUACAAACAACAGAGGAUUGAGCAUCA
B13: chr9:111175386:111175387:+_ENSMUSG00000046785_ENSMUST00000060711|mus_mus|FALSE|FALSE (ssRNA)
RNA: GGGAGUUCUACAGUCCGACGAUCCUCAGUUAGUAGAGGCUGAAACUCCGGUCGCCUAACACCUCUGGUCUUAAUCAUAACUACCCAUUCAGAUAUGGUAUUUAUGAUCUGAUUAAUAUCAACAUCAUAAGAACUCAACAGUUCCAACAGAGGAUUGAGCAUCA
B14: chr2:47387792:47387793:-_ENSG00000143933_ENST00000272298|hu_hu|FALSE|FALSE (ssRNA)
RNA: GGGAGUUCUACAGUCCGACGAUCUUAGGACAAUGACAGUAAGAUAAGGGAAGAAAACAUGGAGGAAUGAAGUCCUAAUUACUAUACAUGCAUAUUUUUUUGACAGUAGGGAGAAACCUUUUACAGAUAAGUUACAAACAAAGACAACAGAGGAUUGAGCAUCA
B15: chr12:12974248:12974249:+_ENSG00000213782_ENST00000358007|hu_mus|FALSE|FALSE (ssRNA)
RNA: GGGAGUUCUACAGUCCGACGAUCCAGGGCCUCGAACUGCUCAGAGAUCUGAAAGGCCAACUCUCGAGUAGGGGUGAGGACCAGGGCGAACAGUCGCUGGGGCGUCUCCAGCAGGGCAUUCAGGAUGGGCAAAGCAAAGGCACCCAACAGAGGAUUGAGCAUCA
B16: chr9:78015909:78015910:+_ENSMUSG00000009828_ENSMUST00000044551|mus_hu|FALSE|FALSE (ssRNA)
RNA: GGGAGUUCUACAGUCCGACGAUCAAAUAACCCUCUAUCACAUAGCCUUAAAUUGCACCCCUGUUGCAAUACUGCAUUAAUAUUAUUACAUUUUUCAAAAUCUGUAGAAAAUAUUAUCUGGAACCCCAAAGGAAAAUCAAUUAACAACAGAGGAUUGAGCAUCA
B17: 133253450_133308401_1176_3pUTR_ENSMUSG00000026425_ENSMUST00000097588|mouse|control|control (ssRNA)
RNA: GGGAGUUCUACAGUCCGACGAUCUCGGCAUUGUACAUGUGAUAUGUCUUCAUGACCGAGUAAAGCUCGUUCAGGACUUUCAUCAAAUCAUCUUGGAGUUGCUGGCCAACUUCUUUACUCUUUUUAAAGAGUCUUCCUGAGUCCCAACAGAGGAUUGAGCAUCA
B18: chr10:121602103:121602104:-_ENSG00000197771_ENST00000369077|hu_hu|FALSE|FALSE (ssRNA)
RNA: GGGAGUUCUACAGUCCGACGAUCAAGGAACCCAAGAAGUUCUGCUCUGACUGGAGACAAUUCGGACAUGAAACUUGAAACAAAGGUUUUGCUCUCCUCUUUGUUAAGGCAGGCAGGCAAUAAUGGGUUGAUGUGUUGCAACUUCAACAGAGGAUUGAGCAUCA
B19: chr4:138453181:138453182:-_ENSG00000189184_ENST00000344876|hu_hu|motif|central (ssRNA)
RNA: GGGAGUUCUACAGUCCGACGAUCGUUCCUCAUAAAUCCUGUAUUUCAAAUUCUUGCCCAGUACAUCGUGGUUGAAAGAUACGGUCAGAAGUGCAAAAACAAACCUAAAGUGCAUUUUAGCAUUCAUUUGGUGCAUUGGUCAGUCAACAGAGGAUUGAGCAUCA
B20: chr2:117085000:117085001:+_ENSMUSG00000027349_ENSMUST00000028825|mus_hu|FALSE|FALSE (ssRNA)
RNA: GGGAGUUCUACAGUCCGACGAUCACGAUCUUUAAUAUCUCCUGAUAUGAGUACAGAAUAUGGACAUGCCAUUUCUUUUAAAAAGCCACUUAUCUCAAGCUGGAAGCUCUCUAGAUCAUCUCUUCCAGCAGACGUGAUACUUUCCAACAGAGGAUUGAGCAUCA
B21: chr4:95690885:95690886:+_ENSMUSG00000028572_ENSMUST00000156910|mus_mus|mus_mus_mus_hu_False|8_108 (ssRNA)
RNA: GGGAGUUCUACAGUCCGACGAUCUUUAUUUUUAGAAAAAUACCAUGCUAAAAUAUUUUCAAAGGCUUAUUUUAUUUUACCAGAAGUCACAGGCAAGCAGACACUACAAGAAUAUAUGAAAAUGAAACAACAGUGUAUAACUGUCAACAGAGGAUUGAGCAUCA
B22: chr8:95500983:95500984:-_ENSG00000164944_ENST00000437199|hu_hu|hu_hu_hu_mus_True|18_38 (ssRNA)
RNA: GGGAGUUCUACAGUCCGACGAUCAGAACACAUCUAUCGAGUAAAGGACCGUACAUGACGGCCUCUACCACUGCCUCCACUAACAAACUUUCCUCUCUGAGCCUCCAUGCCGCUAUUUUGCACUAGCCAGGACGGUCCCAGGCCCAACAGAGGAUUGAGCAUCA

The target in this experiment is T1, UNK ZnF1-3. As to the kind of experiment: nsRBNS (natural sequence RNA bind-n-seq); RBNS binding buffer (assumed for nsRBNS): 25 mM Tris pH 7.5, 150 mM KCl, 3 mM MgCl2, 0.01% Triton X-100, 500 ug/ml BSA, 20 U/ml SUPERase-In, 4 C; UNK is unkempt and MSI1 is Musashi-1; names of the RNAs are library labels; protein concentration not given here; high values mean tight binding.
With B1, the binding signal was 1.19 enrichment R.

The molecule B2 returned a binding signal of 0.467 enrichment R.

Molecule B3 came in with a binding signal of 1.1 enrichment R.

Consider B4, for which the binding signal came out at 1.22 enrichment R.

With B5, the binding signal stood at 1.41 enrichment R.

Consider B6, for which the binding signal was determined as 1.08 enrichment R.

B7: the binding signal was determined as 2.45 enrichment R.

On to B8, for which the binding signal amounted to 0.883 enrichment R.

Turning to B9, the binding signal stood at 0.971 enrichment R.

Molecule B10 returned a binding signal of 0.449 enrichment R.

Molecule B11 showed a binding signal of 1.34 enrichment R.

On to B12, for which the binding signal came to 0.63 enrichment R.

B13 registered a binding signal of 0.684 enrichment R.

As for B14, the binding signal was 2.13 enrichment R.

The molecule B15 registered a binding signal of 1.84 enrichment R.

Turning to B16, the binding signal was 1.47 enrichment R.

With B17, the binding signal was found to be 0.464 enrichment R.

Take B18: the binding signal is 1.22 enrichment R.

As for B19, the binding signal turned out to be 1.35 enrichment R.

In turn, B20 showed a binding signal of 0.583 enrichment R.

In turn, B21 returned a binding signal of 2.06 enrichment R.

B22: the binding signal was 1.04 enrichment R.
